# According to paper PMC4336329 (PLoS ONE, 2015):
# In all, about 310,000 compounds went through this assay and about 2,200 (0.71%) showed an effect of 50% or more. Effects have a minus sign here. The list shows a part of the results.
# Molecular target: human ether-à-go-go-related gene (hERG) potassium channel (human, UniProt Q12809)
# Assay: primary screen, population patch clamp on CHO cells stably expressing hERG
# Chain of human ether-à-go-go-related gene (hERG) potassium channel (Q12809 whole entry, looked up): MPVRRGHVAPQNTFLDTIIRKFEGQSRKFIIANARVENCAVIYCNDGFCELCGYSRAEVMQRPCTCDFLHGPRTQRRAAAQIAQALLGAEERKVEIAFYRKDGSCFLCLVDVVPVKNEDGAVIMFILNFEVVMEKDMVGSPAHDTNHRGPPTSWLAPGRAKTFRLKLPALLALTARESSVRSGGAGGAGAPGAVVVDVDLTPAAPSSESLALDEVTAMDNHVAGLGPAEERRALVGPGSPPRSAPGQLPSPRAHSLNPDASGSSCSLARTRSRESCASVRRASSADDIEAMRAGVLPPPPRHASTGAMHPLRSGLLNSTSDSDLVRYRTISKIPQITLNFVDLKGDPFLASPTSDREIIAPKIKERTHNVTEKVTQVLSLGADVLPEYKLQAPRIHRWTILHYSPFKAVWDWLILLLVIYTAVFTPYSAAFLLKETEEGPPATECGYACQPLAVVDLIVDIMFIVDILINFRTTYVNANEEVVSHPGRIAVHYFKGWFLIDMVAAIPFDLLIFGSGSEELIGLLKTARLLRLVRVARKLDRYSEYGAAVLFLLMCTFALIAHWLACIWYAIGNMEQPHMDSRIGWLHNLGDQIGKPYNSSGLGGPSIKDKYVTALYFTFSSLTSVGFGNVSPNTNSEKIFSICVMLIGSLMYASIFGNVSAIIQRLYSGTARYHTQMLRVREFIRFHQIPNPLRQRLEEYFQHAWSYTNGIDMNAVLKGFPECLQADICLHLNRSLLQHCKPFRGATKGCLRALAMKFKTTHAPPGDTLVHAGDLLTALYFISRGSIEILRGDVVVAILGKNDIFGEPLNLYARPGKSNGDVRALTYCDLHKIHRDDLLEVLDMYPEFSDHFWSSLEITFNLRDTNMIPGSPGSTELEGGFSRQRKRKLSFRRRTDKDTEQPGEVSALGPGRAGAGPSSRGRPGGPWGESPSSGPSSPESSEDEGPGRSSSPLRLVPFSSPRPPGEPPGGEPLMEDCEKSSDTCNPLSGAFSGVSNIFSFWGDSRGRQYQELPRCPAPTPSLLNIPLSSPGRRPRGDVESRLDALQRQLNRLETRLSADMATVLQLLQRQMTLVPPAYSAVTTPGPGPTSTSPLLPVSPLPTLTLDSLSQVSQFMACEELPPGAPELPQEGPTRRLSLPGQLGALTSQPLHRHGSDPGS
row,Compound,"hERG current change (%, negative = inhibition) at 1uM"
1,CC(C)C1COC(c2cccc3ccccc23)=N1 (stereo not drawn),-4.12%
2,O=C(CSc1nncs1)NCCNC(=O)CSc1nncs1,17.6%
3,COc1ccccc1NS(=O)(=O)c1cccc(C(=O)NCC(C)(C)N2CCOCC2)c1,4.67%
4,C=CCC1(CC=C)CCCN1C(=O)CC1C(=O)NCCN1Cc1cc(OC)cc(OC)c1 (stereo not drawn),10.5%
5,O=C(COc1ccccc1Cl)NNC(=O)Cn1[nH]c(=O)c2ccccc2c1=O,5.12%
6,Cc1cccc(NC(=O)c2ccc3nsnc3c2)c1C,20.7%
7,NC(=O)c1ccsc1NC(=O)COC(=O)COc1ccccc1[N+](=O)[O-],11.4%
8,COc1cc(-c2cc(C(=O)Nc3ccncc3)c3ccccc3n2)cc(OC)c1OC,3.21%
9,CCOC(=O)c1c(NC(=O)C2C3C=CC(C3)C2C(=O)O)sc2c1CCC(C)C2 (stereo not drawn),9.85%
10,Cc1[nH]nc2c1C(c1ccc(O)cc1)C1=C(CC(C)(C)CC1=O)N2 (stereo not drawn),14.6%
11,Nc1ncnc(Sc2ccc(Cl)cc2)c1[N+](=O)[O-],11.9%
12,O=C(O)C1OC(Oc2c(-c3ccc(O)c(O)c3)oc3cc(O)cc(O)c3c2=O)C(O)C(O)C1O (stereo not drawn),13.1%
13,Cc1csc(SCC(=O)Nc2ncc(Cl)c(C)c2Cl)n1,8.8%
14,CN(C)S(=O)(=O)c1ccc(NC(=O)C2CC3C=CC2C3)cc1 (stereo not drawn),5.77%
15,COc1cc(Br)cc2cc(C(=O)N3CCN(C(=O)c4ccco4)CC3)c(=O)oc12,-9.36%
16,O=C(NCCc1ccccc1)C1CCCN(S(=O)(=O)c2cccc3nsnc23)C1 (stereo not drawn),16.9%
17,CC(=O)c1sc(NC(=O)c2cc3c(C)nn(-c4ccccc4)c3s2)nc1C,16.1%
18,Cc1cc(C)n(C(=O)c2ccc(C)c(F)c2F)n1,13.2%
19,COc1ccc2nc(Nc3nc4cc5c(cc4s3)OCCO5)sc2c1,6.33%
20,COc1cc(NC(=O)CSc2nc3c(C)ccc(C)c3cc2C)c(C(=O)O)cc1OC,10.5%
21,COc1ccc(Cc2nn3c(-c4ccccc4Br)nnc3s2)cc1,5.51%
22,Cc1cc(O)c(/C=N/Nc2cccc(Cl)c2)c(=O)o1,6.27%
23,O=C(CSc1nc2ccccc2c(=O)n1CC1CCCO1)NCC1CCCO1 (stereo not drawn),-4.25%
24,Cn1c(-c2ccccc2)cnc1NCc1cc2c(cc1[N+](=O)[O-])OCO2,-10.5%
25,CC(C)CN(C(=O)CSc1nnc2ccccn12)c1c(N)n(CC(C)C)c(=O)[nH]c1=O,5.22%
26,Nc1c2c(nc3ccccc13)CCN(Cc1ccccc1)C2,-23.5%
27,COc1ccccc1N(CC(=O)NC(C)(C)C)S(=O)(=O)c1cccs1,8.12%

row,Compound,"hERG current change (%, negative = inhibition) at 1uM"
1,O=C(Nc1ccc(S(=O)(=O)Nc2ccccc2)cc1)C1COc2ccccc2O1 (stereo not drawn),7.69%
2,COc1ccccc1C(=O)NCCC(=O)N(C)CC(=O)Nc1ccccc1Br,4.68%
3,CC(NC(=O)c1ccc(S(=O)(=O)Nc2ccccc2)cc1)c1ccc(S(N)(=O)=O)cc1 (stereo not drawn),5.64%
4,COC(=O)C1=C(c2cc3ccccc3o2)C[C@@H]2CC[C@H]1N2C(=O)N1CCCCC1,2.04%
5,Cc1ccc(OCc2nnc(SCC(=O)Nc3cc(C)on3)n2C)cc1,11.7%
6,O=C(CCC(=O)c1cccs1)NC1CCCCCC1,1.1%
7,O=C1c2cccnc2C(Nc2ccc(F)c(Cl)c2)N1Cc1cccs1 (stereo not drawn),3.51%
8,O=S(=O)(c1cccc(-c2nnco2)c1)N1CCOCC1,12.1%
9,CCOc1ccc2oc(C(=O)OCC(=O)NC3CCCC3)c(C)c2c1,11.9%
10,CCOc1ccc(CCNC(=O)CSc2ncn[nH]2)cc1OCC,8.24%
11,CCO[C@H]1OC(C(=O)O)=C[C@@H](c2ccccc2)[C@@H]1CCCO,-1.35%
12,CCCc1nnc(NC(=O)c2ccc(S(=O)(=O)N(C)c3ccccc3OC)cc2)s1,5.64%
13,COCCN(C(=O)Cc1coc2cc(C)c(C)cc12)c1c(N)n(Cc2ccccc2)c(=O)[nH]c1=O,6.85%
14,O=S(=O)([O-])CCC[N+]1(CC#Cc2ccccc2)CCCCC1,20.2%
15,CCC(C)NS(=O)(=O)c1ccc(NC(=O)c2ccc([N+](=O)[O-])cc2Cl)cc1 (stereo not drawn),0.587%
16,CC(C)C(C)(C#N)NC(=O)CSc1nc(C2CCCCC2)n(-c2ccccc2)n1 (stereo not drawn),4.11%
17,CC1CC(=O)N(c2ccc(NCCc3ccc(O)cc3)c([N+](=O)[O-])c2)C1=O (stereo not drawn),9.4%
18,Cc1cc(=O)oc2c(C)c(OCC(=O)N3CCN(Cc4ccccc4)CC3)ccc12,-0.265%
19,CNS(=O)(=O)c1ccc(C)c(S(=O)(=O)NC)c1,13.2%
20,N/C(=N\N=C\c1ccnc2ccccc12)SC1CC(=O)N(c2ccc(Br)cc2)C1=O (stereo not drawn),10.4%
21,COc1ccc(-c2nnc(SCC(=O)NCc3cccs3)n2C)cc1,7.61%
22,c1ccc(-c2nnc(-c3ccncc3)nc2-c2ccccc2)cc1,10.4%
23,CCc1nc(C)ccc1OC(=O)C12CC3CC(CC(C3)C1)C2.Cl,-5.23%
24,COc1ccc(C)cc1NC(=O)CSc1nnc2ccc(-c3cccnc3)nn12,-2.6%
25,COc1ccc(NC(=O)Cn2nnc(C(=O)NCc3cccc(OC)c3)c2N)cc1,10.9%
26,COc1ccc(-c2csc(NC(=O)c3ccccc3NS(=O)(=O)c3ccc(F)c(F)c3)n2)cc1,13.6%
27,COC(=O)c1cccc(NC(=O)c2cc3sccc3n2C)c1,-7.6%
